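Briefly, cells in 96-well plates were exposed to five compound concentrations for 48 h, and endpoints were estimated by linear interpolation. Abbreviation: GI50, concentration required for 50% inhibition of growth. TGI denotes the concentration required for complete inhibition of growth.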

In this assay the test system is NCI-H322M lung. Put plainly: NCI-60 cell line screen, 48 h.

As to `CCOC(=O)C12CCC(=O)C=C1[C@@H](C)C(=O)CC2` (some centres not stated), the TGI was greater than 100 µM.
In turn, `CCCCCC/C=C1\CCC(CN2CCCC2)C1=O` (configuration not stated) returned a TGI of 36 µM.
Still for that read-out and setting: with `O=C1C(N2CCNCC2)=C(Cl)C(=O)c2ncccc21` the figure was greater than 10 µM; with `COc1cc(NC(C)=O)ccc1C(=O)N/N=C/c1ccc(Cl)cc1Cl`, greater than 100 µM.
`COC1CC(OC2C(C)OC(OC3C(C)OC(OC4C(O)CC(O[C@H]5CC[C@@]6(C)C(=CC[C@]7(O)[C@@H]6C[C@@H](OC(=O)/C=C/c6ccccc6)[C@@]6(C)[C@]7(O)CC[C@@]6(O)C(C)=O)C5)OC4C)CC3OC)CC2OC)OC(C)C1O` (some centres not stated) displayed a TGI greater than 6.25 µM.
Same read-out and setting: in the case of `CC1(CO)OC(n2cc(C(=O)NC(=O)OCc3ccccc3)c(=O)[nH]c2=O)CC1O` (configuration not stated) it was greater than 100 µM.
`CCC(CO)Nc1nc(NCc2ccccc2O)c2ncn(C(C)C)c2n1` (configuration not stated): the GI50 was 5.24 µM and the TGI was greater than 100 µM.
`Cn1c(=O)nc2n(-c3cccc(Br)c3)c3ccccc3nc-2c1=O` gave a TGI of 17 µM.
Still for that read-out and setting: in the case of `NC(=O)C(N)=O` it was greater than 100 µM.
On the same count and under the same terms, with `FC(F)(Sc1ccccn1)c1nc2ccccc2o1` the figure was greater than 100 µM.
With `CC(C)(O)CS(=O)(=O)Nc1ccc2c(c1)CCN(C(=O)COc1cccnc1)C2`, the GI50 is greater than 100 µM and the TGI was greater than 100 µM.
The compound `Nc1ccc2nc(Nc3ccc(F)cc3)cnc2c1` gave a TGI greater than 100 µM.
`N=C(c1ccc2ccccc2c1)c1ccccc1Cc1ccccc1` came in with a TGI greater than 100 µM.
As for `O=C(O)CN1CCN2CCOCCOCCN(CC1)CCN(CC(=O)O)CC2`, the TGI is greater than 100 µM.
In the case of `O=c1c2ccccc2n(C[C@H]2CO2)c2ccccc12`, the GI50 is 2.2 µM and the TGI is 5.85 µM.
`COc1cc(C2c3cc(O)c(OC)cc3C3OCC2C3CO)ccc1O` (configuration not stated) yielded a TGI greater than 100 µM.
As for `CCc1c(C#N)c(S[C@@H](C(N)=O)c2ccccc2)nc(N(C)C)c1C#N`, the GI50 was greater than 100 µM and the TGI is greater than 100 µM.
`Oc1cc(-c2ccccc2)cn2c1nc1ccccc12` showed a TGI greater than 100 µM.
Same read-out and setting: with `N#CN=C(N)NC(=O)/C=C/C=C/c1ccc(Cl)cc1` the figure was greater than 100 µM.
For `O=C(/C=C/c1cccnc1)NCCCCC1CCCN(C(=O)c2ccccc2)C1` (configuration not stated), the GI50 is greater than 45.3 µM and the TGI was greater than 100 µM.
On the same counts, the results for `O=C1NC(O)C(c2c[nH]c3ccccc23)=C1c1c[nH]c2ccccc12` (configuration not stated) are greater than 25 µM and greater than 25 µM.
`CC(=O)OC(C)C1C2=C(C(=O)CC1(C)O)C(=O)c1c(ccc(-c3ccc4c(c3O)C(=O)C3=C(C4=O)C(C(C)OC(C)=O)C(C)(O)CC3=O)c1O)C2=O` (configuration not stated) showed a TGI of 25 µM.
Still for that read-out and setting: in the case of `Oc1ccccc1/C=N/Nc1nc(N/N=C/c2ccccc2O)nc(N/N=C/c2ccccc2O)n1` it was greater than 100 µM; in that of `COc1cc(C)c(/C=C/C(=O)N2C(=O)OC[C@@H]2c2ccccc2)c(C)c1`, greater than 100 µM.
As for `O=C1C(Cl)=C(Nc2cccc(Cl)c2)C(=O)N1Cc1ccccc1Cl`, the GI50 was 16.5 µM and the TGI is 38.6 µM.
Take `c1ccc2[nH]c(-c3ccc(NN=Nc4ccncc4)cc3)nc2c1`: the GI50 was greater than 100 µM and the TGI is greater than 100 µM.
`COC(=O)c1c2c(c(C)[n+]([O-])c1C)C(=O)C=C(NCc1ccc(F)c(Cl)c1)C2=O`: the GI50 was 0.429 µM and the TGI stood at 1.6 µM.
Turning to `CN(CCCCN1CCCC1)CCCN(C)C(=O)Cc1ccc(Cl)c(Cl)c1`, the TGI was 33 µM.
Still for that read-out and setting: with `O=C1c2ccccc2NC(=O)C2C1C(c1ccccc1)CC2(O)c1ccccc1` (configuration not stated) the figure was greater than 100 µM.
Take `C#CCC(Cc1cnc2nc(N)nc(N)c2n1)c1ccc(C(=O)N[C@@H](CCC(=O)O)C(=O)O)cc1` (some centres not stated): the GI50 was greater than 37.2 µM and the TGI is greater than 100 µM.
The matching figures for `COc1ccc(/C=C/C(=O)c2ccc(SC)cc2)cc1OC`: 13.1 µM and 27 µM.
In the case of `C/C(=N\Nc1cc(C)c2cc(C)ccc2n1)c1ccccn1`, the GI50 is less than 0.0258 µM and the TGI is 1.22 µM.
In turn, `COc1cc(/C=C(\C#N)C(=O)c2ccccc2)ccc1O` registered a TGI greater than 100 µM.
On the same count and under the same terms, with `O=C1c2ccccc2C(=O)[C@@]23O[C@@]12C1(Oc2cccc4cccc(c24)O1)[C@@H]1O[C@@H]1[C@@H]3O` the figure was 35.1 µM; with `COC(=O)c1sc2ncc3c(c2c1N)CCCCCC3`, greater than 100 µM.
Consider `N#Cc1c(O)c(N=Nc2ccccc2F)c(=O)n2c1[nH]c1ccccc12`, for which the TGI was greater than 100 µM.
As for `Cc1ccc(C)n1-n1c(Cc2ccccc2)n[nH]c1=O`, the TGI was greater than 100 µM.
The same measure, in the same setting: in the case of `COC(=O)C(=O)OC1(C(C)=O)CC2(c3ccccc3)OC1(c1ccccc1)c1ccccc12` (configuration not stated) it was 33.2 µM; in that of `CN(C(=O)C12C3C4C1C1C4(C(=O)C45C6C7C4C4C5C6C74C)C3C12C)C(C)(C)C` (configuration not stated), greater than 100 µM.
In the case of `COc1cc(-c2nn(-c3cccc(NC(=O)Nc4cc(C(F)(F)F)cc(C(F)(F)F)c4)c3)cc2-c2ccncc2)ccc1Cl`, the GI50 is 1.13 µM and the TGI worked out at 4.21 µM.
`COc1ccc(C2CC(c3ccccc3)=Nc3c(-c4ccccc4)nnn32)cc1` (configuration not stated) displayed a TGI of 85.9 µM.
Turning to `CN(C)c1ccc([O][Bi]([Cl])[Cl])cc1`, the GI50 was greater than 100 µM and the TGI was greater than 100 µM.
For `CNC(=O)c1n[nH]nc1Sc1c([N+](=O)[O-])ncn1C`, the TGI was greater than 100 µM.
Still for that read-out and setting: with `Oc1cc(O)c2c(-c3c(O)c(-c4ccc(O)c(O)c4)[o+]c4cc(O)cc(O)c34)c(O)c(-c3ccc(O)c(O)c3)[o+]c2c1` the figure was greater than 100 µM.
In the case of `O=C1C(=O)c2ccccc2C(O)=C1CC=C(Br)Br`, the GI50 is 12.9 µM and the TGI is 72.4 µM.
The matching figures for `Cc1ccc(-n2c3c(c4c(CN(C)C)c(O)ccc42)CCc2ccccc2C3=O)cc1`: 22.2 µM and 48.1 µM.
As for `OC1(c2ccccc2)CC2CCC(C1)N2CCCC1(c2ccc(F)cc2)OCCO1` (configuration not stated), the TGI was greater than 100 µM.
Still for that read-out and setting: with `CCOC(=O)N1CCc2cc(OC)c(OC)c3c2c1cc1cc(OC)c(OC)cc13` the figure was greater than 100 µM; with `O=C1SS(=O)c2ccccc21` (configuration not stated), greater than 100 µM.
On to `C=C1C(=O)O[C@H]2[C@H]1CC/C(Cn1cc(-c3cc(C(F)(F)F)cc(C(F)(F)F)c3)nn1)=C\CC[C@@]1(C)O[C@@H]21`, for which the GI50 was 1.67 µM and the TGI came to 3.6 µM.
`CCN1CCN(c2ccc(Nc3ccnc4ccc5c(nnn5C)c34)cc2)CC1` displayed a TGI of 30.5 µM.
Same read-out and setting: with `CC(=O)OC[C@]1(O)CC[C@@]23CC1C[C@@H]2CCC1C(C)(C)CCC[C@@]13C` (some centres not stated) the figure was 29.9 µM.
With `O=C1/C(=C/c2ccccc2)CN(C(=O)c2cccnc2)C/C1=C\c1ccccc1`, the GI50 was 2.62 µM and the TGI was found to be 7.09 µM.
`COc1c(OC)c(OC)c2c(c1OC)c(=O)c1ccccc1n2C`: the TGI is greater than 100 µM.
Still for that read-out and setting: with `CCCCCCCCCCCCCC(=O)CC(=O)c1c(O)cccc1O` the figure was greater than 100 µM.
Take `COc1cc2c3c(n(CCCN)c(=O)c2cc1OC)-c1cc2c(cc1/C3=C\CCN)OCO2`: the GI50 is 0.528 µM.
`CCOc1ccccc1NC(=O)CC1SC(=Nc2ccc([N+](=O)[O-])cc2)NC1=O` (configuration not stated) registered a TGI of 84.3 µM.
For `COC(=O)c1ccccc1CC1Cc2ccc3c(c2C1)CCC3` (configuration not stated), the TGI was greater than 100 µM.
In the case of `[O-][n+]1onc2c1CCC(=N\O)/C2=N/Nc1ccccc1`, the TGI was greater than 100 µM.
Same read-out and setting: in the case of `Cc1ccc(N=Nc2ccc(O)c(CN(C)C)c2)cc1C` it was greater than 100 µM; in that of `COc1ccc(C(=O)Cc2c(C(=O)c3ccccc3)c3ccccc3n2C(=O)c2ccccc2)cc1`, greater than 100 µM.
`C=CCN1C(=O)/C(=C/c2ccc(OC)cc2)NC1=S` gave a TGI greater than 100 µM.
With `CC(=O)[CH-]C(=O)c1ccccc1.CC(=O)[CH-]C(=O)c1ccccc1.[Eu+3].[OH-].[OH3+]`, the GI50 was greater than 100 µM and the TGI was greater than 100 µM.
In turn, `COc1cccc(NC(=O)/C(CC(=O)CC(c2ccccc2)c2c(O)c3ccccc3oc2=O)=N\NC(C)(C)C)c1OC` (configuration not stated) gave a TGI greater than 100 µM.
`COc1ccccc1CCN=C1NC(=O)/C(=C/c2ccc3ncccc3c2)S1`: the GI50 was 6.49 µM and the TGI was greater than 20.8 µM.
Turning to `O=c1cc2ccccc2nn1Cc1cccc(Cl)c1`, the TGI was greater than 100 µM.
`C=CC(=O)N1CCN(c2nc(=O)n(-c3c(C)ccnc3C(C)C)c3nc(-c4c(O)cccc4F)c(F)cc23)[C@@H](C)C1`: the GI50 is greater than 64.4 µM and the TGI was greater than 100 µM.
For the compound `Cc1ccc(NC(=O)CSc2nc(C)nc3c2sc(=S)n3-c2ccccc2)cc1`, the TGI was greater than 10 µM.
Compound `NC(=S)N/N=C(\Cc1nc2ccc(Cl)cc2[nH]c1=O)C(=O)Nc1ccc(Cl)cc1` returned a TGI greater than 100 µM.
Consider `Cc1cc2nc3c4cc(N)ccc4n(CCN(C)C)c3nc2cc1C`, for which the GI50 is 0.65 µM and the TGI stood at 6.29 µM.
`COc1cc(CNc2ccc3nc4n(c(=O)c3c2)CCCCC4)cc(OC)c1OC` registered a TGI greater than 100 µM.
The same measure, in the same setting: with `Nc1nc(N)c(NC(=O)CCCO)c(=O)[nH]1` the figure was greater than 100 µM; with `NNC(=O)c1ccccc1NC(=O)/C(=C/c1ccccc1O)NC(=O)c1ccccc1`, greater than 100 µM.
`COc1cc(C)c(Cl)cc1C1=NN(c2ccc(S(N)(=O)=O)cc2)C(/C=C/c2ccccc2)C1` (configuration not stated): the GI50 was 4.97 µM and the TGI stood at 68.9 µM.
For the compound `O=S1CCS(=O)CCS(=O)CC1` (configuration not stated), the TGI was greater than 100 µM.
Same read-out and setting: with `CCC/C(=N/NC(=O)C(N)=O)C(CC)C(=O)CCC(=O)N(Cc1ccccc1)Cc1ccccc1` (configuration not stated) the figure was greater than 100 µM.
Turning to `O=C1c2cc3c(cc2-c2c1c1ccc(Cl)cc1c(=O)n2CCCNCCO)OCO3`, the GI50 is 1.24 µM and the TGI amounted to 2.65 µM.
`Cc1c(C)c2c(c(N)c1C#N)C(=O)N(Nc1ccccc1)C2=O`: the TGI was found to be 6.61 µM.
In turn, `O=C(CO)CC(=O)C(=O)Nc1ccccc1` yielded a TGI greater than 100 µM.
On to `Ic1ccccc1-c1ccccc1`, for which the GI50 is greater than 100 µM and the TGI was greater than 100 µM.
With `Cc1ccc(/C=C2/SC(Nc3nc(-c4csc(NC5=NC(=O)/C(=C\c6ccc(C)cc6)S5)n4)cs3)=NC2=O)cc1`, the GI50 is 8.94 µM and the TGI amounted to 32.3 µM.
With `Cc1cc(S(N)(=O)=O)c(S/C(CC(C)C)=N\Nc2ccc([N+](=O)[O-])cc2)cc1Cl`, the GI50 is 3.84 µM and the TGI was determined as 15.5 µM.
The matching figures for `COC(=O)C1=C(C(=O)ON)C2C=CC1(C(Cc1ccccc1)Nc1ccccc1)O2` (configuration not stated): 14.9 µM and 28.3 µM.
In turn, `O=NNc1ccc(S(=O)(=O)c2ccccc2)cn1` gave a TGI greater than 100 µM.

The record behind these values is PubChem BioAssay (NCI).
